# Results from the supplement of paper PMC8728848.
# The other results are listed elsewhere or left out.
# B1: ECL (Erythrina cristagalli), Q6YD91 (protein)
# chain: VETISFSFSEFEPGNNDLTLQGAAIITQSGVLQLTKINQNGMPAWDSTGRTLYTKPVHIWDMTTGTVASFETRFSFSIEQPYTRPLPADGLVFFMGPTKSKPAQGYGYLGVFNNSKQDNSYQTLAVEFDTFSNPWDPPQVPHIGIDVNSIRSIKTQPFQLDNGQVANVVIKYDASSKILLAVLVYPSSGAIYTIAEIVDVKQVLPEWVDVGLSGATGAQRDAAETHDVYSWSFHASLPETND
# Tests used:
# Assay in all cases: glycan array binding signal (z-score within array); higher = stronger binding
# Conditions in all cases: glycan notation: IUPAC condensed, linker removed
# [1] = target: Gal(b1-4)GlcNAc(b1-2)Man(a1-6)[Man(a1-3)]Man(b1-4)GlcNAc(b1-4)GlcNAc
# Outline: (§1)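 Columns mapping to the same glycan were averaged after glycan names were converted to IUPAC-condensed notation. The data come from 3228 arrays in the Consortium for Functional Glycomics database, limited to those with an available protein sequence. Binding is reported as a within-array Z-score averaged across arrays of one protein sequence and across linkers.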
# [2] = target: Gal(b1-4)GlcNAc(b1-2)[Gal(b1-4)GlcNAc(b1-4)]Man(a1-3)[Gal(b1-4)GlcNAc(b1-2)Man(a1-6)]Man(b1-4)GlcNAc(b1-4)GlcNAc
# Outline: as §1
# [3] = target: Gal(b1-4)GlcNAc(b1-2)[Gal(b1-4)GlcNAc(b1-4)]Man(a1-3)[Gal(b1-4)GlcNAc(b1-2)[Gal(b1-4)GlcNAc(b1-6)]Man(a1-6)]Man(b1-4)GlcNAc(b1-4)GlcNAc
# Outline: as §1
# [4] = target: Gal(b1-4)GlcNAc(b1-2)[Gal(b1-4)GlcNAc(b1-4)]Man(a1-3)[GlcNAc(b1-4)][Gal(b1-4)GlcNAc(b1-2)Man(a1-6)]Man(b1-4)GlcNAc(b1-4)GlcNAc
# Outline: as §1
# [5] = target: Gal(b1-4)GlcNAc(b1-2)[Gal(b1-4)GlcNAc(b1-4)]Man(a1-3)[GlcNAc(b1-4)][Gal(b1-4)GlcNAc(b1-2)[Gal(b1-4)GlcNAc(b1-6)]Man(a1-6)]Man(b1-4)GlcNAc(b1-4)GlcNAc
# Outline: as §1
# [6] = target: Gal(b1-4)GlcNAc(b1-2)[Gal(b1-4)GlcNAc(b1-6)]Man(a1-6)[Gal(b1-4)GlcNAc(b1-2)Man(a1-3)]Man(b1-4)GlcNAc(b1-4)GlcNAc
# Outline: as §1
# [7] = target: Gal(b1-4)GlcNAc(b1-2)[Gal(b1-4)GlcNAc(b1-6)]Man(a1-6)[Gal(b1-4)GlcNAc(b1-2)Man(a1-3)]Man(b1-4)GlcNAc(b1-4)[Fuc(a1-6)]GlcNAc
# Outline: as §1
# [8] = target: Gal(b1-4)GlcNAc(b1-2)[Gal(b1-4)GlcNAc(b1-6)]Man(a1-6)[GlcNAc(b1-4)][Gal(b1-4)GlcNAc(b1-2)Man(a1-3)]Man(b1-4)GlcNAc(b1-4)GlcNAc
# Outline: as §1
# [9] = target: Gal(b1-4)GlcNAc(b1-2)[Gal(b1-4)GlcNAc(b1-6)]Man(a1-6)[GlcNAc(b1-4)][Gal(b1-4)GlcNAc(b1-2)[Gal(b1-4)GlcNAc(b1-4)]Man(a1-3)]Man(b1-4)GlcNAc(b1-4)[Fuc(a1-6)]GlcNAc
# Outline: as §1
# [10] = target: Gal(b1-4)GlcNAc(b1-3)Gal(b1-3)GalNAc
# Outline: as §1
# [11] = target: Gal(b1-4)GlcNAc(b1-3)Gal(b1-3)GlcNAc
# Outline: as §1
# [12] = target: Gal(b1-4)GlcNAc(b1-3)Gal(b1-4)Glc
# Outline: as §1
# [13] = target: Gal(b1-4)GlcNAc(b1-3)Gal(b1-4)GlcNAc
# Outline: as §1
# [14] = target: Gal(b1-4)GlcNAc(b1-3)Gal(b1-4)GlcNAc(b1-2)Man(a1-3)[Gal(b1-4)GlcNAc(b1-3)Gal(b1-4)GlcNAc(b1-2)Man(a1-6)]Man(b1-4)GlcNAc(b1-4)GlcNAc
# Outline: as §1
# [15] = target: Gal(b1-4)GlcNAc(b1-3)Gal(b1-4)GlcNAc(b1-2)Man(a1-3)[Gal(b1-4)GlcNAc(b1-3)Gal(b1-4)GlcNAc(b1-2)Man(a1-6)]Man(b1-4)GlcNAc(b1-4)[Fuc(a1-6)]GlcNAc
# Outline: as §1
# [16] = target: Gal(b1-4)GlcNAc(b1-3)Gal(b1-4)GlcNAc(b1-2)[Gal(b1-4)GlcNAc(b1-3)Gal(b1-4)GlcNAc(b1-6)]Man(a1-6)[Gal(b1-4)GlcNAc(b1-3)Gal(b1-4)GlcNAc(b1-2)Man(a1-3)]Man(b1-4)GlcNAc(b1-4)GlcNAc
# Outline: as §1
# [17] = target: Gal(b1-4)GlcNAc(b1-3)Gal(b1-4)GlcNAc(b1-2)[Gal(b1-4)GlcNAc(b1-3)Gal(b1-4)GlcNAc(b1-6)]Man(a1-6)[Gal(b1-4)GlcNAc(b1-3)Gal(b1-4)GlcNAc(b1-2)Man(a1-3)]Man(b1-4)GlcNAc(b1-4)[Fuc(a1-6)]GlcNAc
# Outline: as §1
# [18] = target: Gal(b1-4)GlcNAc(b1-3)Gal(b1-4)GlcNAc(b1-3)Gal(b1-4)GlcNAc
# Outline: as §1
binder,measurement,setting,value
B1,glycan array binding signal (z-score),[1],0.021
same,glycan array binding signal (z-score),[2],3.21
same,glycan array binding signal (z-score),[3],4.03
same,glycan array binding signal (z-score),[4],0.663
same,glycan array binding signal (z-score),[5],1.79
same,glycan array binding signal (z-score),[6],1.65
same,glycan array binding signal (z-score),[7],5.09
same,glycan array binding signal (z-score),[8],1.42
same,glycan array binding signal (z-score),[9],2.43
same,glycan array binding signal (z-score),[10],-0.069
same,glycan array binding signal (z-score),[11],-0.064
same,glycan array binding signal (z-score),[12],0.489
same,glycan array binding signal (z-score),[13],0.763
same,glycan array binding signal (z-score),[14],1.7
same,glycan array binding signal (z-score),[15],4.13
same,glycan array binding signal (z-score),[16],1.13
same,glycan array binding signal (z-score),[17],6.18
same,glycan array binding signal (z-score),[18],0.335
